# Data reported in PubChem BioAssay AID686971 (National Center for Advancing Translational Sciences (NCATS), 2013).
# Hit rate of the full screen: of about 360,000 compounds, about 7,500 (2.1%) were called active. The shares of active, inactive and inconclusive entries below differ from those in the screen. The call rests on the fitted dose curve; in most records, active means well fitted cell-killing curve with a large enough effect; inconclusive means small, poorly fitted or top-dose-only effect, or effect the other way, or another doubt; inactive means no such curve, though single readings can be large or run the other way. Potencies of inconclusive entries are left out as doubtful fits.
# Test: qHTS for induction of synthetic lethality in tumor cells producing 2HG: qHTS for the HT-1080-IDH1KD cell line;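 on activity, negative = toxicity: 0% = DMSO wells and -100% = cell-free medium wells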
# Settings: HT-1080 IDH1 knockdown viability, ATP luminescence, 48 h; activity, negative = toxicity: at 46.1 µM (top of the series) unless noted
# In short: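 Knockdown cells (IDH1KD HT-1080) received compounds 2 h after plating at 750 cells/well and were kept 48 h at 37 °C in 5% FBS RPMI. A CellTiter-Glo luminescence read gave % activity for curve fitting.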
# Potency means the concentration at half of the fitted maximal effect; tags describe the fitted curve by direction and shape.
Compound,Potency,"activity, negative = toxicity"
Cc1ccc(C(=O)c2ccccc2C(=O)OCC(=O)Nc2ccc(SC(F)F)cc2)cc1,"inconclusive [cytotoxic, single point]",
Cc1ccc(S(=O)(=O)N(C)CC(=O)N2CCOCC2)cc1,inactive,
Cc1ccccc1C=Nc1ccccc1C(N)=O,active: 16.4 µM,
CC(=O)c1c(C)[nH]c(C(=O)CSc2nnc(-c3ccccc3)n2Cc2ccc3c(c2)OCO3)c1C,active: 23.1 µM,
CCOC(=O)c1c(NC(=O)c2ccco2)n(C2CCCCC2)c2nc3ccccc3nc12,active: 15.8 µM,
COc1ccc(/C=N/NS(=O)(=O)c2ccccc2)cc1OS(=O)(=O)c1ccc(C)cc1,inactive,
N=c1c2c(-c3ccccc3)c(-c3ccccc3)oc2ncn1CCN1CCOCC1,"inconclusive [cytotoxic, single point]",
COCCNC(=O)NC(=O)COC(=O)c1ccc2[nH]c3c(c2c1)CCCC3,"inconclusive [cytotoxic, partial curve]",
Cc1ccc(C)c(C(C)NC(=S)NCc2ccc(F)cc2)c1 (configuration not stated),"inconclusive [cytotoxic, single point]",
Brc1ccccc1OCCCOc1cccc2cccnc12,"inconclusive [cytotoxic, single point]",
Cc1c(C(=O)C(=O)N2c3ccccc3CC2C)c2ccccc2n1C (configuration not stated),"inconclusive [cytotoxic, single point]",
CC1CCC2(CC1)NC(=S)N(c1ccccc1)N2 (configuration not stated),active: 18.4 µM,
CC(C)n1c(CN(C)Cc2ccccc2)nc2c1c(=O)n(C)c(=O)n2C,,inconclusive: -33% [cytotoxic]
Cc1ccc(-c2cc(C(=O)Nc3ccc(S(=O)(=O)Nc4onc(C)c4C)cc3)c3ccccc3n2)cc1,"inconclusive [cytotoxic, partial curve]",
COc1cc(-c2cc(-c3ccccc3)nc(SCC(=O)Nc3nccs3)c2C#N)cc(OC)c1OC,"inconclusive [cytotoxic, partial curve]",
COC(=O)c1[nH]c2cccc(OC)c2c1NC(=O)CCN1CCN(c2ccccc2OC)CC1,"inconclusive [cytotoxic, single point]",
CCc1nc2scc(-c3ccc(C)cc3)c2c(=O)n1N,inactive,
CCOc1cccc(/C=C/c2ccc3cccc(O)c3n2)c1OC,"inconclusive [cytotoxic, partial curve]",
CC(=O)Nc1cc(N=Cc2ccc(O)cc2O)c(Cl)cc1Cl,active: 18.4 µM,
C#CCOc1ccc2ccccc2c1/C=C(/C#N)c1ccc(C(=O)O)cc1,"inconclusive [cytotoxic, single point]",
N#CC(C#N)=NNc1ccc2cn[nH]c2c1,active: 20.6 µM,
COc1cccc(C(=O)NCC(c2ccc3c(c2)OCO3)N2CCN(c3ccc(F)cc3)CC2)c1 (configuration not stated),inactive,
Fc1ccccc1C1c2cccn2CCN1C(=S)Nc1ccc(Br)cc1 (configuration not stated),"inconclusive [cytotoxic, partial curve]",
NC(Cc1ccc(C(F)(F)F)cc1)c1csc(Nc2cc(NCc3ccco3)ncn2)n1 (configuration not stated),active: 16.4 µM,

Compound,Potency,"activity, negative = toxicity"
OC(COCc1cccs1)CN1CCN(c2cccc(Cl)c2)CC1 (configuration not stated),inactive,
Oc1cccc(C2c3[nH]c4ccccc4c3CCN2Cc2cnn(-c3ccccc3)c2)c1 (configuration not stated),"inconclusive [cytotoxic, partial curve, poor fit]",
COc1ccccc1CNC(=O)Nc1nc(C(N)CCc2ccccc2)cs1 (configuration not stated),active: 18.4 µM,
Cc1ccc(C(=O)CCC(=O)N2CCN(c3ccccc3O)CC2)cc1,"inconclusive [cytotoxic, partial curve]",
CS(=O)(=O)c1ccc(C(=O)OCc2nnc(-c3ccccc3)o2)cc1[N+](=O)[O-],active: 4.11 µM,
COCCNS(=O)(=O)c1ccc(-c2ccc(C)cc2)cc1,"inconclusive [cytotoxic, single point]",
FC(F)(F)c1ccc2c(c1)C1C=CCC1C(c1ccncc1)N2 (configuration not stated),"inconclusive [cytotoxic, partial curve]",
CCOC(=O)c1c(C)c(C(=O)Nc2cc(F)ccc2F)c(C)n1C,"inconclusive [cytotoxic, single point]",
Cc1ccc(NC(=O)c2nc(S(=O)(=O)Cc3ccccc3)ncc2Cl)cc1,active: 6.51 µM,
O=C(Cc1cccc(C(F)(F)F)c1)NCC(=O)Nc1cc(Cl)ccc1Cl,"inconclusive [cytotoxic, single point]",
COc1ccc(-c2nn(-c3ccccc3)cc2/C=N/NC(N)=S)cc1OC,active: 0.651 µM,
COc1ccc2sc3cccc(NCCN(C)C)c3c(=O)c2c1,active: 16.4 µM,
COc1ccc(-c2ccc(S(=O)(=O)N3CCOCC3)cc2)cc1,"inconclusive [cytotoxic, single point]",
COc1ccc2nnc(-c3ccccc3)n2n1,inactive,
CC(=O)Nc1cccc(OCC(=O)NS(=O)(=O)c2ccc(Cl)cc2)c1,,inconclusive: 30.9%
O=C1c2cccc3c([N+](=O)[O-])ccc(c23)C(=O)N1c1nccs1,active: 2.24 µM,
CCc1nnc(NC(=O)CSc2nnc(-c3ccccc3O)n2-c2ccc(C)cc2)s1,active: 13 µM,
O=C(Oc1c(CN2CCOCC2)cc(Cl)c2cccnc12)c1cccs1,active: 3.66 µM,
O=C1CC(c2ccccc2)Cc2nc3ncnn3cc21 (configuration not stated),"inconclusive [cytotoxic, single point]",
COc1ccc2nc(C)cc(SCC(=O)NNC(=O)COc3cccc4ccccc34)c2c1,"inconclusive [cytotoxic, single point]",
COc1ccc(CCn2c(=N)c(C(=O)NCc3ccco3)cc3c(=O)n4cccc(C)c4nc32)cc1,"inconclusive [cytotoxic, single point]",
Clc1cccc(Nc2c3c(nc4ncnn24)CCC3)c1,"inconclusive [cytotoxic, single point]",
NS(=O)(=O)c1cnccc1Nc1ccc(Cl)c(Cl)c1,inactive,
